Assay results: patent US20250154276A1 (ZONHON BIOPHARMA INSTITUTE, published 2025)

Target: human CD26 (human, UniProt P27487 1-766)
Experiment: cell-based or functional assay

B1: ZB09 (bispecific antibody, human IgG1)
chain: DIVMTQSASSLPVTPGEPASISCRSDKSLLHSNGNTYLYWFLQKPGQSPQVLIYRMSNLASGVPDRFSGSGSGTDFTLTISRVEAEDVGVYYCFQQLEYPYTFGQGTKLEIKGGGGSGGGGSGGGGSQVQLVQSGAEVVKPGASVKISCKASGFNIKDTYIYWVRQRTGQGLEWIGRIEPMNGNTKYDPKFQGRLTMTANTSKNTAYLQLSSLTSEDTAVYYCSRGGWLLLYVMDYWGQGTTVTVSSGGGGSDVQLVQSGAEVKKPGASVKVSCKASGYTFTRYTMHWVRQAPGQGLEWIGYINPSRGYTNYADSVKGRFTITTDKSTSTAYMELSSLRSEDTATYYCARYYDDHYCLDYWGQGTTVTVSSGGGGSGGGGSGGGGSDIVLTQSPATLSLSPGERATLSCRASQSVSYMNWYQQKPGKAPKRWIYDTSKVASGVPARFSGSGSGTDYSLTINSLEAEDAATYYCQQWSSNPLTFGGGTKVEIKGGGG[human IgG1 Fc cut from this listing]GGGGSGGGGSGGGGSGGGGSGGGGSGGGGSGGGGSGGGGSGGGGSGGGGSGGGGSGGGGS[human IgG1 Fc cut from this listing]
IC50 values (pM) of different bispecific antibodies mediating PBMC cytotoxicity to OS-RC-2: 10.1 pM
